Measured values taken from PubChem BioAssay AID686978 (National Center for Advancing Translational Sciences (NCATS), 2013).
Several values for one entry are separate records, joined by “and”; a condition that tells them apart may be missing. Identical values can stand only once. Screen size: about 420,000 compounds; about 64,000 (15%) were called active. Inconclusive results, whose numbers are uncertain, are shown with a selection of clear calls. Calls come from the whole dose curve; as a rule, active = well fitted inhibition curve with a large enough effect; inconclusive = small, poorly fitted or top-dose-only effect; inactive = flat fitted curve, though single readings scatter. Potencies of inconclusive entries are doubtful fits and often do not repeat.

experiment: qHTS for Inhibitors of human tyrosyl-DNA phosphodiesterase 1 (TDP1): qHTS in cells in absence of CPT; conditions: DT40 Tdp1-/- hTDP1 cells, no CPT, ATP luminescence, 48 h; activity change, negative = growth inhibition: at 46.2 µM (top of the series); note: nearly all actives have a fitted effect of over 55% in size
Procedure, shortened: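 Growth kinetics read by CellTiter-Glo luminescence after ≥48 hr at 37 °C. Cells: DT40 Tdp1-/- stably carrying human TDP1, 400 per well, compound exposure in the absence of CPT (DMSO vehicle).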
% is set by controls: 0 for no effect and ±100 for the full control effect; potency is the fitted concentration of half-maximal effect; tags give direction and shape of the fitted curve.

SMILES | Potency | activity change, negative = growth inhibition
CCC1CN(C(=O)NCc2ccc(F)cc2)c2ccccc2O1 (centres undefined) | inconclusive: 23.1 µM [inhibitor, single point] and inconclusive: 16.4 µM [inhibitor, single point] | –
Nc1nc(SCC(=O)N2N=C3/C(=C\c4ccco4)CCCC3C2c2ccco2)n[nH]1 (centres undefined) | inconclusive: 29.1 µM [inhibitor, single point] | –
CSCCC(NC(=O)c1ccco1)C(=O)Nc1ccc(C)c(S(=O)(=O)N2CCOCC2)c1 (centres undefined) | inactive | –
Cc1ccc(C(=O)NC(=C(Cl)Cl)S(=O)(=O)c2ccc(Cl)cc2)cc1 | active: 18.4 µM | –
CC1CCN(S(=O)(=O)c2ccc3c(c2)c(=O)c(C(=O)NC2CCCC2)cn3C)CC1 | inconclusive: 29.1 µM [inhibitor, single point] | –
Cc1oc(-c2ccc3ccccc3c2)nc1CN(C)C(C)c1ccncn1 (centres undefined) | inconclusive: 18.4 µM [inhibitor, single point] | –
CC(C)(Cc1c[nH]c2ccccc12)NCC(O)COc1ccccc1C#N (centres undefined) | active: 23.7 µM | –
CC1CN(C(=O)c2ccc(NS(=O)(=O)c3ccc(C(C)(C)C)cc3)cc2)CC(C)O1 (centres undefined) | active: 9.2 µM | –
CCCc1[nH][nH]c(=O)c1C(c1ccc(Cl)cc1)C(C#N)C#N (centres undefined) | inactive | –
Cc1ccc(NC(=O)c2ccc(Oc3ncccn3)cc2)cc1 | inactive | –
Cn1c(=O)c(/C=C/c2ccccc2)nc2ccccc21 | active: 16.4 µM | –
COc1ccc(/C=C/C2=NN(Cc3ccccc3)C(=O)CC2)cc1 | inconclusive: 23.1 µM [inhibitor, single point] | –
CC(C)CN(C(=O)CSc1n[nH]c(-c2cccs2)n1)C1CCS(=O)(=O)C1 (centres undefined) | inactive | –
COc1ccc(-n2c(=O)c3c4c(sc3n(Cc3cc(=O)n5c(C)cccc5n3)c2=O)CCC4)c(OC)c1 | inconclusive: 32.6 µM [inhibitor, single point] | –
COC(=O)CCSCC(=O)Nc1ccc(C)c(S(=O)(=O)N2CCCCC2)c1 | inactive | –
CC(C)=C(NC(=O)c1ccccc1Cl)C(=O)NCCc1nc2ccccc2[nH]1 | inactive | –
CCc1nnc(N2C(=O)c3ccc(Oc4ccc([N+](=O)[O-])cc4)cc3C2=O)s1 | inconclusive: 25.9 µM [inhibitor, single point] | –
O=c1[nH]cnc2[nH]cc(CN3CCCCC3)c12 | inactive | –
COc1ccc(C2CC(=O)N3CN(C4CCCCC4)CSC3=C2C#N)cc1 (centres undefined) | inconclusive: 23.1 µM [inhibitor, single point] | –
Cc1cc(NC(=O)c2ccccc2Cl)n(C(C)(C)C)n1 | inactive | –
C=CCn1c(SCC(=O)NCc2ccc3c(c2)OCO3)nc2scc(-c3ccc(F)cc3)c2c1=O | inconclusive: 29.1 µM [inhibitor, single point] | –
COc1ccc(OC)c(S(=O)(=O)Nc2ccc3c(c2)OCCO3)c1 | inconclusive: 18.4 µM [inhibitor, single point] | –
Cc1ccc(Cn2c(=O)c3ccccc3n3c(-c4ccccc4)nnc23)cc1 | inconclusive: 16.4 µM [inhibitor, single point] | –

SMILES | Potency | activity change, negative = growth inhibition
O=C1C2C3c4ccccc4C(c4ccccc43)C2C(=O)N1/N=C/c1cccc(O)c1 (centres undefined) | inconclusive: 14.6 µM [inhibitor, partial curve] | –
N#Cc1ccc(NC(=O)NN2CCCCCC2)cc1 | inconclusive: 23.1 µM [inhibitor, single point] | –
COCCCNC(=O)[C@@H](Cc1ccccc1)NC(=O)CC[C@H]1O[C@@H](n2ccc(=O)[nH]c2=O)[C@H](O)[C@@H]1O | inactive | –
O=C(CNc1cc(S(=O)(=O)N2CCOCC2)ccc1N1CCOCC1)Nc1cccc(C(F)(F)F)c1 | inconclusive: 25.9 µM [inhibitor, single point] | –
Cn1ccc(C(=O)NCC2CCC3(CCN(Cc4ccc(F)cc4F)CC3)O2)n1 (centres undefined) | inactive | –
COc1ccc(CCN(Cc2cc3cccc(C)c3[nH]c2=O)C(=O)NC2CCCCC2)cc1OC | inconclusive: 29.1 µM [inhibitor, single point] | –
CCc1ccc(CNC(=O)CSCc2cnn(-c3ccccc3)c2-n2cccc2)cc1 | inconclusive: 23.1 µM [inhibitor, single point] | –
COCCNC(=O)COC(=O)/C=C/c1c(C)nn(Cc2ccc(Cl)cc2Cl)c1Cl | active: 16.4 µM | –
Cc1ccc(C)c(S(=O)(=O)N/N=C/c2ccc(N3CCOCC3)cc2)c1 | inconclusive: 29.1 µM [inhibitor, single point] | –
O=C(OC(C(=O)Nc1ccc([N+](=O)[O-])cc1Br)c1ccccc1)c1ccccc1 (centres undefined) | inconclusive: 29.1 µM [inhibitor, single point] | –
O=C1N(Cc2ccccc2)CC2(Br)COCOC12O (centres undefined) | active: 3.26 µM | –
CCCC(=O)NC(c1ccc(N(C)C)cc1)c1ccc2cccnc2c1O (centres undefined) | active: 0.92 µM | –
C#CCOCCOCCOCCNc1nc(N2CCN(C(=O)C([C@@H](C)CC)n3cc(C(N)COC(=O)C(F)(F)F)nn3)CC2)nc(N2CCN(C(=O)[C@H](CCCCN)n3cc(C(N)[C@H](C)CC)nn3)CC2)n1 (some centres undefined) | inactive | –
COc1ccc(NC(=O)CCCS(=O)(=O)c2nc(-c3ccc(OC)c(OC)c3)cc(C(F)(F)F)n2)cc1OC | active: 1.64 µM | –
Cc1ccc(S(=O)(=O)N2CCN(C(=O)CN(Cc3ccco3)Cc3cccs3)CC2)cc1 | inactive | –
Oc1ccc(Cl)cc1CNCc1ccc(F)cc1 | inconclusive: 29.1 µM [inhibitor, single point] | –
COc1ccc(-c2nn(-c3ccccc3)cc2/C=C(\CC(=O)O)c2nc3ccccc3s2)cc1OC | inconclusive: 9.2 µM [inhibitor, partial curve] | –
CCOC(=O)N1CCN(S(=O)(=O)c2cc(Cl)ccc2Cl)CC1 | inconclusive: 9.2 µM [inhibitor, partial curve] | –
COc1ccccc1N1CCN(C(=O)CSc2nc3ccccc3o2)CC1 | inconclusive: 29.1 µM [inhibitor, single point] | –
O=C(NCCNc1ccc([N+](=O)[O-])cc1C(F)(F)F)c1ccc(F)cc1 | inconclusive: 20.6 µM [inhibitor, single point] | –
Cc1ccc(NC(=S)NCC23C=CC(O2)C2C(=O)N(c4ccc(C)cc4)C(=O)C23)cc1 (centres undefined) | inconclusive: 23.1 µM [inhibitor, single point] | –
Cc1cc(C)c(C#N)c(SCC(=O)N(CC(C)C)C2CCS(=O)(=O)C2)n1 (centres undefined) | inactive | –
Cc1nc(N2CCC(C)CC2)c(C#N)c(C)c1[N+](=O)[O-] | inactive | –

SMILES | Potency | activity change, negative = growth inhibition
O=C(Nc1ccc2c(c1)N(C1CCCC1)C(=O)c1ccccc1S2)c1ccccc1 | active: 11.6 µM | –
COc1ccc(F)cc1C(=O)C1CCCN(Cc2ccc(Oc3ncccn3)cc2)C1 (centres undefined) | inconclusive: 32.6 µM [inhibitor, single point] | –
O=C(NC1CC1)c1ccc(CSCc2ccc(Cl)cc2)o1 | active: 20.6 µM | –
Cc1cccc(-c2noc(CN(C(C)C)S(=O)(=O)c3ccc(F)cc3)n2)c1 | inconclusive: 16.4 µM [inhibitor, single point] | –
O=C(Cn1cncn1)N/N=C/c1ccccc1O | active: 13 µM | –
COCCNC(=O)C1Nc2ccc(OC(F)(F)F)cc2C2C=CCC12 (centres undefined) | inconclusive: 11.6 µM [inhibitor, partial curve] | –
COc1cccc(C(=O)N2CCC(C(=O)NCc3ccc(C)cc3)CC2)c1 | inconclusive: 25.9 µM [inhibitor, single point] | –
COc1ccc(CCNC(=O)C(=O)NCC(c2cccs2)S(=O)(=O)c2ccccc2)cc1 (centres undefined) | – | inconclusive: -32.4% [inhibitor]
COc1cccc(-c2nc(CS(=O)CC(=O)N3CCN(c4cccc(C(F)(F)F)c4)CC3)c(C)o2)c1 (centres undefined) | active: 13 µM | –
CCOC(=O)C1(Cc2ccccc2)CCN(Cc2cccc3c2OCO3)CC1 | inconclusive: 23.1 µM [inhibitor, single point] | –
N/C(=N\OC(=O)c1ccc(Cl)c([N+](=O)[O-])c1)c1ccccc1 | inconclusive: 29.1 µM [inhibitor, single point] | –
Cc1ccc(C)c(C(=O)C(C)Sc2nc3nn(-c4ccccc4)c(=O)c-3c3n2CCCCC3)c1 (centres undefined) | active: 20.6 µM | –
CCNc1ncc2nc(-c3cccs3)c(=O)n(Cc3cccs3)c2n1 | inactive | –
COC(=O)N1CCCCC1c1cc(C(=O)NCc2cccnc2)no1 (centres undefined) | inactive | –
O=C(Cn1cnc2c(cnn2-c2ccccc2)c1=O)N1CCCc2ccccc21 | inconclusive: 14.6 µM [inhibitor, single point] | –
CC(=O)Nc1ccc(S(=O)(=O)N2CCN(CCCOc3cc(C)ccc3C)CC2)cc1 | active: 18.4 µM | –
CN(Cc1nc2ccccc2n1C)c1ccccc1 | inconclusive: 16.4 µM [inhibitor, partial curve] | –
Cc1onc(-c2ccccc2Cl)c1C(=O)N1CCCc2ccccc21 | inconclusive: 23.1 µM [inhibitor, single point] | –
CCN1C(=O)CC(C(=O)Nc2ccc(OC)cc2)SC1=Nc1ccc(C)c(C)c1 (centres undefined) | inconclusive: 20.6 µM [inhibitor, single point] | –
Cc1nn2c(N3CCN(CCO)CC3)c3c(nc2c1-c1ccccc1)CCCC3 | inconclusive: 20.6 µM [inhibitor, single point] | –
CCOc1ccc2cc(S(=O)(=O)N3CCCCC3)ccc2c1 | inconclusive: 32.6 µM [inhibitor, partial curve, poor fit] | –
O=C(Cc1ccc(Br)cc1)N1CCN(C(=O)c2ccco2)CC1 | inactive | –
CCc1nc(SCC(=O)NCCc2ccccc2)c2oc3ccccc3c2n1 | inconclusive: 23.1 µM [inhibitor, single point] | –
